Laboratory results taken from PubChem BioAssay AID1347073 (National Center for Advancing Translational Sciences (NCATS), 2019).
The whole screen tested about 45,000 compounds, of which about 200 (0.44%) were called active. Another 7% or so got no clear call; they are omitted. The call rests on the fitted dose curve; in most records, active means well fitted activation curve with a large enough effect; inconclusive means small, poorly fitted or top-dose-only effect; inactive means no such curve, though single readings can be large or run the other way. This is one part of the list.

Experiment: qHTS of TDP-43 Inhibitors: NCGC Sytravon Library Screen; further: 0% is about no effect; nearly all actives have a fitted effect of over 55% in size
Settings: yeast TDP-43 toxicity rescue, BacTiter-Glo growth, 24 h; series mostly up to 46.1 µM; growth rescue (activation): at the top concentration
How it was run: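 TDP-43-expressing yeast, pregrown in raffinose, seeded at OD600 0.02 in galactose medium with compound for 24 hr at 30 deg C. Growth read by BacTiter-Glo luminescence, so rescue of toxicity appears as activation.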

SMILES | growth rescue (activation)
CCN(CC)S(=O)(=O)c1ccc(C(=O)N(c2ccccc2)C2C=CS(=O)(=O)C2)cc1 (stereo not drawn) | inactive: 7.49%
CC1=NC(C)(C)Cc2c(C)cccc21 | inactive: 4.46%
Cc1ccc(-c2nnc(N3CCOCC3)c3ccccc23)cc1S(=O)(=O)NCC1CCCO1 (stereo not drawn) | inactive: -9.67%
CC(=O)c1cccc(NC(=O)CCCSc2ccccc2)c1 | inactive: 11.9%
CN(C(=O)CSc1nnc2n1CCCCC2)C1(C#N)CCCCC1 | inactive: 7.87%
CC(=O)c1cccc(N(C(=O)Cn2nnc3ccccc32)C(C(=O)NCc2ccccc2)c2ccccn2)c1 (stereo not drawn) | inactive: 4.27%
Cc1ccccc1N(C(=O)c1snc(C(N)=O)c1N)C(C(=O)NC1CCCC1)c1ccco1 (stereo not drawn) | inactive: 3.23%
CC(=O)Nc1ccc(C(=O)CSc2nnnn2C)cc1 | inactive: 0.0723%
Cc1ccc(NC(=O)C2CCCN2C(=O)c2cccs2)c(C)c1 (stereo not drawn) | inactive: 4.35%
NC(CCc1ccccc1)c1csc(NC(=O)Nc2ccccc2Oc2ccccc2)n1 (stereo not drawn) | inactive: 12.4%
CCc1cccc(CC)c1NC(=O)CCCSc1nc2ccccc2s1 | inactive: 11.1%
Cc1nn(-c2ccccc2)c2[nH]c(=O)cc(C(F)(F)F)c12 | inactive: -84.2%
CC1CCN(S(=O)(=O)c2ccc(NC(=O)[C@@H]3CCCC[C@@H]3C(=O)O)cc2)CC1 | inactive: 28.8%
Cc1cc(C)c(C)c(N=Nc2nc3ccccc3n2C)c1C | inactive: 23.1%
COCC(C)NC(=O)c1ccccc1[N+](=O)[O-] (stereo not drawn) | inactive: 8.03%
CCN(CC)C(=O)Cn1c(=O)n(CCCCCC(=O)NCc2ccc3c(c2)OCO3)c(=O)c2sccc21 | inactive: -4.44%
Cc1ccc(C2C3=C(CC(C)(C)CC3=O)N=C3c4ccccc4C(=O)C32)cc1 (stereo not drawn) | inactive: 5.85%
CCN(C(=O)COc1ncnc2ccccc12)C1CCCCC1 | inactive: -7.71%
COc1ccccc1N(C)S(=O)(=O)c1ccc(C(=O)Nc2nnc(C)s2)cc1 | inactive: 11.6%
Cc1ccccc1C1C(C#N)=C(N)N(N(C)C)C2=C1C(=O)CC(C)(C)C2 (stereo not drawn) | inactive: 11.8%
COc1cccc(C(=O)/C=C/Nc2ccc(S(=O)(=O)Nc3nc(C)cc(C)n3)cc2)c1 | inactive: -8.23%
O=c1c2cc(Br)ccc2[nH]c(=S)n1Cc1ccccc1 | inactive: 1.9%
Cc1cc(C)n(-c2cc(N3CCN(S(=O)(=O)c4ccc(C)c(C)c4)CC3)ccc2[N+](=O)[O-])n1 | inactive: 12.9%
Cc1noc(NS(=O)(=O)c2ccc(NC(=O)c3cccc(S(=O)(=O)Nc4ccccc4F)c3)cc2)c1C | inactive: 38.2%
Cc1cc(C)c(NC(=O)Cn2c(=O)oc3cc(S(=O)(=O)N4CCCCCC4)ccc32)c(C)c1 | inactive: 3.9%
Cc1cccc(N(CC(N)=O)C2SC(=O)NC2=O)c1 (stereo not drawn) | inactive: 1.69%
O=C(OCC(=O)N1c2ccccc2Sc2ccccc21)c1ccc[n+]([O-])c1 | inactive: -3.04%

SMILES | growth rescue (activation)
CCOC(=O)C1(Cc2ccc(OC)cc2)CCN(C(=O)CN2CCN(CC)CC2)CC1 | inactive: 10.7%
O=[N+]([O-])c1ccc(O)c(Nc2ncnc3ccccc23)c1 | inactive: -1.43%
CC1(C)Oc2ccc3ccc(=O)oc3c2-c2cn[nH]c21 | inactive: 14.9%
COCCN(C(=S)Nc1cc(C)cc(C)c1)C(C)c1cccnc1 (stereo not drawn) | inactive: 10.6%
Cc1ccc(-n2cc(CNCCn3nc(C)cc3C)c(-c3ccc(F)cc3)n2)cc1 | inactive: -1.04%
CC1CCCCC1NC(=O)CSc1nnc(-c2ccncc2)n1CCCN(C)C (stereo not drawn) | inactive: 3.23%
CN(C)c1ccc(C(=O)OCC(=O)c2cccs2)cc1 | inactive: 11.5%
CCC(=O)NC(=S)Nc1ccc(NC(=O)c2ccco2)c(OC)c1 | inactive: 23.4%
CC1CCc2c(nc3ncnn3c2NCCc2ccccc2F)C1 (stereo not drawn) | inactive: 22.7%
COc1ccc(OC)c(CN2CCC(C(=O)N3CCOCC3)CC2)c1 | inactive: -43.3%
COc1cccc(NC(=O)C2(C)CCN2CCc2ccccc2)c1 (stereo not drawn) | inactive: 3.47%
CN1C(=O)N(C)C2(c3ccccc3)N(C(C)(C)C)C(=O)NC12c1ccccc1 (stereo not drawn) | inactive: -8.32%
COc1ccc(CCNC(=O)CSc2nc(-c3ccc(OC)c(OC)c3)ccc2C#N)cc1 | inactive: -7.88%
CCOP(=O)(OCC)C(NC(=O)c1cccs1)c1ccccc1 (stereo not drawn) | inactive: 3.15%
COc1ccccc1C1C2=C(CCCC2=O)N(CC(=O)O)C2=C1C(=O)CCC2 | inactive: 9.01%
Cc1ccc2nc3c(cc(C(=O)NCC4CCCO4)c(=N)n3C3CCCC3)c(=O)n2c1 (stereo not drawn) | inactive: -34.9%
CC(C)c1ccc(N(CC(=O)NC2CCCC2)C(=O)CCC(=O)Nc2nccs2)cc1 | inactive: -1.18%
O=C(CCCN1C(=O)/C(=C/c2cccc(Br)c2)SC1=S)N1CCOCC1 | inactive: -0.385%
O=[N+]([O-])c1ccc(S(=O)(=O)NCCc2ccncc2)cc1 | inactive: 6.76%
CN(C)S(=O)(=O)c1ccc(NC(=O)N2CCN(c3ccccc3)CC2)cc1 | inactive: -4.47%
O=C(CN1CCC(NC(=O)c2ccco2)CC1)Nc1ccccc1C(F)(F)F | inactive: -10.1%
Cn1c(N)c(C(=O)COC(=O)c2ccccc2NCc2ccco2)c(=O)n(C)c1=O | inactive: 4.02%
COc1ccc(S(=O)(=O)N(CC(=O)NCc2ccncc2)c2cc(C)cc(C)c2)cc1OC | inactive: -2.42%
O=C(/C=C/Nc1ccc(S(=O)(=O)Nc2ncccn2)cc1)c1ccc2ccccc2c1 | inactive: -11.6%
COc1ccc(/C=C/C(=O)Nc2nc(N)n(-c3ccccc3)n2)cc1 | inactive: 15%
CCCCCCCC(=O)N/N=C/c1ccncc1 | inactive: 0.757%
